Reference: the supplement of paper PMC11417369
± gives the standard deviation of the averaged measurements. The list shows a part of the results.

These sequences were tested on PfAP2-EXP AP2 domain (GST-tagged) (assay: gcPBM binding intensity (ln(normalized median fluorescence intensity)); higher = stronger DNA binding).
Outline: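 Binding intensity is the highest Masliner-normalised natural-log median intensity over replicate spots in either probe orientation. To obtain it, GST-tagged P. falciparum DNA-binding domains made in E. coli were incubated for 1 h on an Agilent 4 × 180k array of primer-extended double-stranded 36-bp intergenic genomic probes plus negative controls. Detection used Alexa488 anti-GST antibody with scanning at 488 nm.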

Row | Sequence | gcPBM binding intensity (ln)
1 | TATACTCATAAATACACACACATATATATATATATA [CACACA_site5822] | 10.2 ± 0.28
2 | TATACATACCCACCCACACACAAAAAAAAAAAAAAA [CACACA_site4632] | 9.36 ± 0.95
3 | AAAATATAATATAATGCACACATAAAAAAAAAATCA [CACACA_site7922] | 8.62 ± 0.31
4 | TATCTGTAAATGGACACACACATATATATATATATA [CACACA_site5926] | 10.2 ± 0.2
5 | TATATATATAAAAATACACACATGAATGAATATATA [CACACA_site419] | 8.68 ± 0.13
6 | TTTTAAAAAAAATAAAAAATAAACAATAATAAATAA [CACACA_negctrl_site721] | 8.38 ± 0.45
7 | TCTTTATTATTCGCCACACACATATATATATATATA [CACACA_site3077] | 10.2 ± 0.43
8 | AAAAAAAATAATATTGTACACACATAAATTCTTTGT [CACACA_site8654] | 8.33 ± 0.28
9 | TTTTATAAATACACACGTACGTGTGCATAACGTTTT [XGTACX_site3199] | 9.01 ± 0.23
10 | TACTTTTTAAAAATGTTTTATATAATAAAAAGATAT [CACACA_negctrl_site678] | 8.42 ± 0.44
11 | ATATCATAAGTAGAAACACACAATTAGATTTTTTCC [CACACA_site2353] | 8.38 ± 0.49
12 | TAAAAATATAAAACATGTACATATATGCATATATTT [XGTACX_site8093] | 8.79 ± 0.47
13 | ATTATAAACCAGAATGCATGTAGATGAATCTTTTCT [TGCATGCA_site284] | 8.76 ± 0.3
14 | AAATTTAAAATAAGTAGTACATAATATAAATAAATA [XGTACX_site3592] | 8.67 ± 0.42
15 | TAATTGAGCAAATGAGTGCACAGCATAAAGTATAGT [GTGCAC_site9497] | 9.29 ± 0.2
16 | GTACTTGTATTATGCACACATATAATTAAACATATA [CACACA_site3312] | 8.58 ± 0.17
17 | TATAAAAGAAACTATACACACATATTTTAAATATTT [CACACA_site2753] | 8.34 ± 0.57
18 | AAATTTATTTCTGTGTGTCCACAAAAAAAAATCTTT [XGTACX_site691] | 8.2 ± 0.24
19 | TAAGCCTTTCTATTATGTACTTATTAAAACATGTAG [XGTACX_site8022] | 8.55 ± 0.3
20 | CTTATATTAAAACACACACACGCACAAAACAGAAAT [CACACA_site1462] | 9.12 ± 0.42
21 | TTTTTTTTTTTCAATAGTACTTTCCATTTACATATA [XGTACX_site3889] | 8.66 ± 0.49
22 | AAATATATATAAAACTCACACATTATCTTATAACCA [CACACA_site5268] | 8.29 ± 0.37
23 | TTTAATAAAAAAATTAAAAATAAAGAAAAAAAAAAA [CACACA_negctrl_site1464] | 8.44 ± 0.32

Row | Sequence | gcPBM binding intensity (ln)
24 | GCGTAATCTATTTGCACACTTATTTGTTCTTAAAAA [CACACA_site672] | 9.02 ± 0.35
25 | TTAAATAAATATAAGTGTACATACACACTTTACAAT [XGTACX_site6348] | 8.4 ± 0.16
26 | GCATATGTTCAGCGTTGTACATAAAAAAAAACATAT [XGTACX_site5974] | 8.92 ± 0.62
27 | TATGTGTATACAATATGTACATATGTTAACTTGTAT [XGTACX_site872] | 8.76 ± 0.4
28 | ATGTATGGAAATTTTACACACAAGAGTAGTTTAAAA [CACACA_site1710] | 8.39 ± 0.36
29 | AAAAAATAATATTGTACACACATAAATTCTTTGTCA [CACACA_site5187] | 8.27 ± 0.42
30 | TGAGATAACAAAAGTTGTACTTTTTTTTTTTTTTTT [XGTACX_site3004] | 8.585 ± 0.035
31 | TTTTGAAAGTTTTTGTGTCCACATATATTTATATAT [XGTACX_site6563] | 8.5 ± 0.45
32 | TTTATTTATTACTAAAGTACTAAATCATATAATTAT [XGTACX_site3654] | 8.16 ± 0.38
33 | GTTTAAAGTTGAACAAGTACACATTTATATAAGGCA [XGTACX_site351] | 8.67 ± 0.3
34 | ATAAAAAACAGTGGCACACATTATGTATCCACCTTT [CACACA_site5958] | 8.29 ± 0.092
35 | ATGCATATAATTATATGTACATATAAGAAATATATA [XGTACX_site517] | 8.71 ± 0.37
36 | CATTTATTATGATAAAGTACTTAAATTAATAGATAA [XGTACX_site3566] | 8.35 ± 0.36
37 | TAGTGTATGATAATATGTACATACATTTATATAATA [XGTACX_site6330] | 8.59 ± 0.35
38 | TATGCACACAATATATGTACTTATATATTTTAAAAA [XGTACX_site5482] | 8.62 ± 0.31
39 | TTTTATAAAAAAACTATAAAAATATATAGTACTTAA [CACACA_negctrl_site440] | 8.16 ± 0.3
40 | TCTTTTTTTTTTTTTTTTTCTTCTTCTCAATATAAA [GTGCAC_negctrl_site303] | 8.47 ± 0.43
41 | CATAATATGTGGACTTTACACACTTGTTTTAAAATT [CACACA_site819] | 8.39 ± 0.33
42 | AATAATAAAAAATACACACACATATAAATATATTAC [CACACA_site7597] | 8.63 ± 0.75
43 | CATATAAAGATATGAACACACAAAAAGAATATTTCC [CACACA_site6811] | 8.68 ± 0.4
44 | TTCCGAACGACCTAAAGTACATGTATTTCAACTTTT [XGTACX_site1220] | 8.7 ± 0.45
45 | AGGACACATATATGCAAAAAAAAAAAAAAAAAAAAA [TGCATGCA_negctrl_site427] | 8.14 ± 0.4
